Measured values: patent US20130058928A1 (Five Prime, published 2013)

Experiments:
FGF-20 = biological target: T1, FGF-20 (human, UniProt Q9NP95 2-211, limits assumed); assay: SPR, Biacore T100; Fc fusion captured on Protein-A CM5 chip, FGF as analyte, 50 ug/ml heparin
T1 construct: Bought recombinant protein
Description: (§1) The specificity of FGF ligand binding to an FGFR3-IIIc ECD-Fc (SEQ ID NO: 10) was assessed using Biacore® T100 surface plasmon resonance (SPR) technology (Biacore; Piscataway, N.J.). Expression constructs for expressing the FGFR3-IIIc ECD-Fc (SEQ ID NO: 10) fusion protein in 293-6E host cells using the pTT5 vector were made in a manner similar to that described above using cDNAs prepared internally and conventional techniques. The FGFR3-IIIc ECD-Fc fusion protein was produced from 293-6E host cells as described in WO/2007/014123 (PCT/US06/028597) (Examples 2 and 3).
(§2) Protein-A was covalently linked to a CM5 chip, according to manufacturer's instructions and then an FGFR ECD fusion protein was bound to the chip by the interaction of the Fc domain with the Protein-A. The FGF ligands were placed in contact with the FGFR ECD fusion protein, also according to manufacturer's instructions, in the presence of HBS-P buffer (Biacore; Piscataway, N.J.) supplemented with 50 ug/ml heparin (Sigma; St. Louis, Mo.).

FGF-4 = biological target: T2, FGF-4 (human, UniProt P08620 54-206, limits assumed); assay: as above
T2 construct: Bought recombinant protein
T2 sequence (looked up): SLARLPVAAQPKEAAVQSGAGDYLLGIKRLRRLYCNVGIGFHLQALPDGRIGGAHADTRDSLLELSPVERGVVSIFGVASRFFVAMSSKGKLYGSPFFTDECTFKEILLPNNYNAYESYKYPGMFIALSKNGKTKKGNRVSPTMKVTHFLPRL
Description: as §1, §2

FGF-5 = biological target: T3, FGF-5 (human, UniProt P12034 23-268, limits assumed); assay: as above
T3 construct: Bought recombinant protein
T3 sequence (looked up): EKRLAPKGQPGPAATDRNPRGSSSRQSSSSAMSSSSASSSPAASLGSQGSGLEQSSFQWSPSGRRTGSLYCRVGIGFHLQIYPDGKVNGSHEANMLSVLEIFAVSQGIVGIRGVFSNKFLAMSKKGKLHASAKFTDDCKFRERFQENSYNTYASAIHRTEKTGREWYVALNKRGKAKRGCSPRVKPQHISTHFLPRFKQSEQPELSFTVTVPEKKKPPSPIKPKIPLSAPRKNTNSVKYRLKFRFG
Description: as §1, §2

FGF-7 = biological target: T4, FGF-7 (human, UniProt P21781 32-194); assay: as above
T4 construct: Bought recombinant protein
T4 sequence (looked up): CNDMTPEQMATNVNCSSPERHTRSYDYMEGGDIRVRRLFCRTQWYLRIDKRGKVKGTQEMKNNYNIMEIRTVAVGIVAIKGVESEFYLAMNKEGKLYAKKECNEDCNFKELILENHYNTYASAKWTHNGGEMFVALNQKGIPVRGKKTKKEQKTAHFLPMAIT
Description: as §1, §2

FGF-9 = FGF-9 (human, UniProt P31371); assay: as above
Description: as §1, §2

FGF-19 = biological target: T5, FGF-19 (human, UniProt O95750); assay: as above
T5 construct: Bought recombinant protein
Description: as §1, §2

FGF-1 = biological target: T6, FGF-1 (human, UniProt P05230); assay: SPR, Biacore T100; Fc fusion captured on Protein-A CM5 chip, FGF as analyte, 50 ug/ml heparin; average of two independent measurements
T6 construct: Bought recombinant protein
Description: as §1, §2

[1] = biological target: T7, FGF-18 (recombinant, mouse origin) (mouse, UniProt O89101 28-207, limits assumed); assay: as above
T7 construct: Bought recombinant protein
T7 sequence (looked up): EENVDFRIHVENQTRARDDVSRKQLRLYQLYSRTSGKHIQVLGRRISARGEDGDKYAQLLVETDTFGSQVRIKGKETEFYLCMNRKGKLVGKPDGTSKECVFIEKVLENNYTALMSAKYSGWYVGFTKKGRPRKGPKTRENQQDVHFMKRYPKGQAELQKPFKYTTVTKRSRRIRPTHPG
Description: as §1, §2

FGF-20, sequence (Q9NP95 2-211 limits assumed): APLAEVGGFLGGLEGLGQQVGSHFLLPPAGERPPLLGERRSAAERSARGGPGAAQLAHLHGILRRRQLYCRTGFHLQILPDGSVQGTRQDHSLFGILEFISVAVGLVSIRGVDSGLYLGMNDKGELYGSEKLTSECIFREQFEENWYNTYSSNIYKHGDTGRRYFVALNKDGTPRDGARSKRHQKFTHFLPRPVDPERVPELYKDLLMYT
FGF-19, sequence (O95750 25-216 limits assumed): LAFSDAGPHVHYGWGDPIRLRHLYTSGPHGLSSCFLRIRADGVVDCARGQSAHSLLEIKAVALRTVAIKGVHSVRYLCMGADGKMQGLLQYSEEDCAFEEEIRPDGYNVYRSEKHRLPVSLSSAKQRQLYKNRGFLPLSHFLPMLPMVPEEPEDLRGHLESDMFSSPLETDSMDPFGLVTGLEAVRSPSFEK
FGF-1, sequence (P05230 16-155 limits assumed): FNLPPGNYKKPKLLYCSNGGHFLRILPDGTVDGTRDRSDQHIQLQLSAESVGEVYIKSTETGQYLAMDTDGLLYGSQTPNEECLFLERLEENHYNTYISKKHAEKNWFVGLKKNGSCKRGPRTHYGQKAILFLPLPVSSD

koff (FGF-20): 0.000404 s⁻¹
koff (FGF-4): 0.00155 s⁻¹
koff (FGF-5): 0.00169 s⁻¹
kon (FGF-5): 231000 M⁻¹ s⁻¹
koff (FGF-7): 0.0471 s⁻¹
koff (FGF-9): 0.000417 s⁻¹
koff (FGF-19): 0.443 s⁻¹
koff (FGF-1): 0.000331 s⁻¹
koff [1]: 0.00018 s⁻¹
B1: FGFR3-IIIc ECD-Fc (FGFR3-IIIc ECD + GS linker + Fc) (Fc fusion)
chain: ESLGTEQRVVGRAAEVPGPEPGQQEQLVFGSGDAVELSCPPPGGGPMGPTVWVKDGTGLVPSERVLVGPQRLQVLNASHEDSGAYSCRQRLTQRVLCHFSVRVTDAPSSGDDEDGEDEAEDTGVDTGAPYWTRPERMDKKLLAVPAANTVRFRCPAAGNPTPSISWLKNGREFRGEHRIGGIKLRHQQWSLVMESVVPSDRGNYTCVVENKFGSIRQTYTLDVLERSPHRPILQAGLPANQTAVLGSDVEFHCKVYSDAQPHIQWLKHVEVNGSKVGPDGTPYVTVLKTAGANTTDKELEVLSLHNVTFEDAGEYTCLAGNSIGFSHHSAWLVVLPAEEELVEADEAGSVYAGGS[human IgG1 Fc with changes left out]
notes: Produced in 293-6E host cells (pTT5 vector); Captured through its Fc on Protein-A coupled to a CM5 chip; also called FGFR3-IIIc-Fc; FGFR3-IIIc ECD Fc fusion with a GS linker
